Sequences and labels used below:
B1: tRNA (parent)
chain: CUCUCGGUAGCCAAGUUGGUUUAAGGCGCAAGACUUUAAUUUAUCACUACGAAAUCUUGAGAUCGGGCGUUCGACUCGCCCCCGGGAGAUUUUUUCCUCGAGCAA

Variants at the background level are over-represented here.

In this data set the parent is B1. The data set is described as follows: nonsense suppression (GFP-seq) (ratio to wild type); higher = more function; SUP4oc tRNA, yeast GFP reporter sort-seq. In outline: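 Raffinose/galactose medium with 80 mg/L adenine was used to grow yeast carrying genome-integrated tRNA variants (~3% random-mutation library), RFP, and a galactose-driven GFP ochre reporter. Cells went into GFP/RFP bins, which were Illumina-sequenced, and variants with ≥100 reads and ≥30 cells were scored. Nonsense suppression (GFPSEQ) is the per-bin median GFP/RFP weighted by estimated cell share and expressed relative to the unmutated parent tRNA.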
In the case of CUCUCGGGAGCCAAGUUGGUAUAAGGCGCAAGACUUUAAUUUAUCACUACGAAAUCUUGAGAUCGGGCGUUCGACUCGCCCCAGGGAGAUUUUUUCCUCGAGCAA [U8G U21A C83A], the nonsense suppression is at most 0.026. For CUCUCGGUAGCCAAGUUGUUUUAAGGCCCAAGACUUUAAUUUAUCACUACGAAAUCUUGAGAUCGGGCGUUCGAUUCGCCCCCGGGAGAUUUUUUCCUCGAGCAA [G19U G28C C75U] the value was at most 0.026. For CUCUCGGUAGCCAAGUUGGCUUAAGGCGCAAGACUUUAAUUUAUCACUACGAAAUCUUGAGAUCGGGCGUUCGACUCGCCCCCGGGAGUUUUUUUCCUCGAGCAA [U20C A89U] the value was 0.0684; for GUCUCGGUACCCAAGUUGGUUUAAGGCGCGAUACUUUAAUUUAUCACUACGAAAUCUUGAGAUCGGGCGUUCGACUCGCACCCGGGAGAUUUUUUCCUCGAGCAA [C1G G10C A30G G32U C80A], at most 0.026. Then CUCUCCGUAGCCAAGUUGGAAUAAGGCGCAAGACUUUAAUUUAUCACUACGAAAUCUUGAUAUCGGGCGUUCGACUCGCCCCCGGGAGAUUUUUUCCUCGAGCAA [G6C U20A U21A G61U], with at most 0.026; and CUCUCGGUAGCCAAGUUGGUUUUAGGCGCAAGACUUUAAUUUAUCACUACGAAAUCUUGAGAUCGGGCGUUCGACACGCCCCCGGGAGAUUUUUUCCUCGAGCAA [A23U U76A], with at most 0.026; and CUCUCGGUAGCCAAGUUGGUUUAAGGAGCAAGACUUUAAUUUAUCACUACGAAAUCUUGAUAUCGGGCGUUCGACUCGCCCCCGGUAGAUUUUUUCCUCGAGCAA [C27A G61U G86U], with at most 0.026. Consider CUCUCGGUAGCCAAGUUGGUUUAAGGCGCAGGAGUUUAAUUUAUCACUACGAAAUCUUGAGAUCGGGCGUUCGACGCGCCCCCGGGAGAUUUUUUCCUCGAGCAA [A31G C34G U76G], for which the nonsense suppression is at most 0.026.

With GUCUCGGUAGCGGAGUAGGUUUAAGGCGCAAGACUUUAAUUUAUCACUACGAAAUCUUGUGAUCGGGCGUUCGACUCGCCCCCCGGAGAUUUUUUCCUCGAGCAA [C1G C12G A13G U17A A60U G84C], the nonsense suppression is at most 0.026.

Take CUCUCGGUAGCCAAGUUGGUUUACGUCGCAAGACUUUAAUUUAUCACUACGAAAUCUUGAGAUCGGGCGUUCGACUCGCCCCAGGGAGAUUUUUUCCUCGAGCAA [A24C G26U C83A]: the nonsense suppression is at most 0.026. As to CUCUAGGUAGCCUAGUUGGUUUAAGGCGCAAGACUUUAAUUUAUCACUACGAAACCUUGAGAUCAGGCGUUCGACUCGCCCCCGGGAGAUUUUUUCCUCGAGCAA [C5A A13U U55C G65A], the nonsense suppression was at most 0.026. For CUCUCGGUAGCCAAGUGGGUUUAAGUCGCAAGACUUUAAUUUAUCACUACGAAAUCUUGAGAUCGGGCGUUCGACUCGCCCCCGGGAGAUUUUUUCCUCGAGCAA [U17G G26U] the value was at most 0.026; for CUCUCGGUAGCCAAGUUGGUUUAAGGCGCAAGACUUUAAUUUAUCACUACGAAAUCUAGAGAUCGGGCGUUCGACUCGCACCCGGGGGAUUUUUUCCUCGAGCAA [U58A C80A A87G], at most 0.026.

Turning to CUCUCGGUAGCCAAAUUGGUUUAAGGCGCACGACUUUAAUUUAUCACUACGAAAUCUUGAGAUCGGGCGUGCGACUCGCCCCCGGGAGAUUUUUUCCUCGAGCAA [G15A A31C U71G], the nonsense suppression was at most 0.026. For CUCUCGGUAGCCAAGUUGGUUUAACGCGCAGGACUUUAAUUUAUCACUACGAAUUCUUGAGAUCGGGCGUUCGACUCGCCCCCGGGAGAUUUUUUCCUCGAGCAA [G25C A31G A54U] the value was at most 0.026.

As for CUCUCGGUAGCCAAGUUGGUUUAAAGCGCAAGACUUUAAUUUAUCACUACGAAAUCUUGAGAUCGGGCGUUCGAGUCACCCCCGGGAGAUUUUUUCCUCGAGCAA [G25A C75G G78A], the nonsense suppression was at most 0.026. For CUCUCGGUAGCCCAGUUGGUUUAAGGCGCAAGACUUUAAUUUAUCACUACGAAAUCUUGAGAUCGGGCAUUCGACUCGCCCCCGGGAGAUUUUUUCCUCGAGCAA [A13C G69A] the value was at most 0.026; for CUCUCGGUAGCCAAGUUGCUUUAAGGCGCGAGACUUUAAUUUAUCACUACGAAAUCUUGAGAUCGGGCGUUCCACUCGCCCCCGGGAGAUUUUUUCCUCGAGCAA [G19C A30G G73C], at most 0.026. With UUCUCGGUAGCCAAGUUGGUUUAAGGCGCAAGACUUUAAUUUAUCACUACGAAAUCUUGAGAUCGGCCGUUCGACUCGCCCACGGGAGAUUUUUUCCUCGAGCAA [C1U G67C C82A], the nonsense suppression is at most 0.026. For the variant CUCUCGGUAGCCAAGUUGGUUUAAGGCGCAAGACUUUAAUUUAUCACUACGAAAUCUUGAGAUCGGGCGUUCGGCUCGCCCCCGGGAAAUUUUUUCCUCGAGCAA [A74G G88A], the nonsense suppression was at most 0.026. For CUCUCGGUAGCCACGUUAGUUUAAGGCGCAAGAUUUUAAUUUAUCACUACGAAAUCUUGAGAUCGGGCGUUCGACUCGCCCCCGGGAGAUUUUUUCCUCGAGCAA [A14C G18A C34U] the value was at most 0.026. Then GUCUCGGUAGCCAAGCUGGUUUAAGGCGCAAGACUUUAAUUUAUCACUACGAAAUCUUGAGAUCGGGCGUUCGACUCGCCCCCGGGAGAUUUUUUCCUCGAGCAA [C1G U16C], with at most 0.026; and CUCUCGGUAGCCAAGUUGGUUUAAGGCGCAAGACUUUAAUUUAUCACUACGAAAUCUUGAGAUCGGGCGUUGGACUCGCCCCGGGGCGAUUUUUUCCUCGAGCAA [C72G C83G A87C], with at most 0.026; and CUCUGGGUAGCCAAGUUGGUUUAAGGCGCAAGUCUUUAAUUUAUCACUACGAAAUCGUGAGAUCGGGCGUUCGACUUGCCCCCGGGAGAUUUUUUCCUCGAGCAA [C5G A33U U57G C77U], with at most 0.026. In the case of CUCUCCGUAGCCAAGUUGGUUUAAGGCGCAAGGCUUUAAUUUAUCACUACGAAAUCUUGAGAUCGGGCGUUCGACUCGCCCCCGGGAGAUUUUUUCCUCGAGCAA [G6C A33G], the nonsense suppression is at most 0.026. On to CUCUCGGUAGCCAAGUUGGUUUAAGGCGCGAGACUUUAAUUUAUCACUACGAAAUCUUGACAUAGGGCGUUCGACUCGCCCCCGGGAGAUUUUUUCCUCGAGCAA [A30G G61C C64A], for which the nonsense suppression is at most 0.026.

In the case of GUCUCGGUAGCCAAGUUGGUUUAAGGCGCAAGACUUUAAUUUAUCACUACGAAAUACUGAGAUCGGGGGUCCGACUCGCCCCCGGGAGAUUUUUUCCUCGAGCAA [C1G C56A U57C C68G U71C], the nonsense suppression was at most 0.026.

Source of the values: the RNAGym collection of RNA variant scans (doi:10.1101/gad.245936.114).
